# Measured values taken from PubChem BioAssay AID463173 (ICCB-Longwood Screening Facility, Harvard Medical School, 2010).
# Out of some 52,000 compounds screened, about 1,700 (3.3%) were called active. No stated cut-off is given here; in the data, active means survival mostly below about 52% (no sharp cut-off); inactive means mostly above about 56%. This is one part of the list.
# Test system: Wild type
# Assay: growth inhibition of S. aureus wild type versus tarO mutant, primary screen, teichoic acid synthesis inhibitors, RN4220, OD600 (AID 463173)
# Details: S. aureus RN4220 wild type/DeltatarO growth, OD600, 18 h, active compounds read low, screened at 18.75 µg/mL (by protocol)
row,SMILES,survival
1,Cc1noc(/C=C/c2cccs2)c1S(=O)(=O)N1CCC(C(=O)NCc2ccccc2Cl)CC1,inactive: 89%
2,CN(C)/C=C(\C#N)c1nc2ccccc2[nH]1,inactive: 103%
3,CCCCNC(=O)CCCn1c(=O)c2ccccc2n(CC(=O)Nc2ccccc2OCC)c1=O,inactive: 97%
4,CCOc1ccccc1NC(=O)c1ccc(F)c(S(=O)(=O)NCc2ccc3c(c2)OCO3)c1,inactive: 63%
5,COc1cc(/C=C(\C#N)c2nc3ccccc3[nH]2)ccc1OCc1cccc(C(F)(F)F)c1,inactive: 66%
6,CCCc1cnc2c(c1SCC(=O)Nc1ccc(C)c(Cl)c1)c(=O)n(C)c(=O)n2C,inactive: 73%
7,CCOC(=O)c1oc2c(c1C)/C(=N/OC(=O)c1ccccc1Cl)CCC2,inactive: 92%
8,CCOc1ccccc1NC(=O)N1CCc2c(sc(C)c2CC)C1c1ccccc1 (configuration not stated),inactive: 90%
9,COc1ccc(CNc2ncnc3onc(-c4ccc(F)cc4)c23)cc1,inactive: 80%
10,COCC(=O)N(Cc1cc2cc3c(cc2nc1Cl)OCO3)CC1CCCO1 (configuration not stated),inactive: 104%
11,O=C(CSc1oc(-c2ccccc2)nc1S(=O)(=O)c1ccc(Cl)cc1)c1ccccc1,inactive: 61%
12,Cc1ccc2c(=O)cc(C(=O)Nc3ccc(S(=O)(=O)Nc4onc(C)c4C)cc3)oc2c1C,inactive: 87%
13,COC(=O)C1C(=O)NC(S)=C(C#N)C1c1ccccc1Cl (configuration not stated),inactive: 101%
14,Cc1ccc(-n2cc(C(=O)Oc3ccc(F)cc3)c3ccccc3c2=O)cc1,inactive: 71%
15,O=C(CC1C(=O)N(c2ccc(F)cc2)C(=O)N1Cc1ccc2c(c1)OCO2)Nc1ccc(Cl)cc1 (configuration not stated),inactive: 59%
16,Cc1cc(C)nc(-n2nc(C)c3c2N(Cc2ccccc2)C(=O)CC3c2ccc(Cl)cc2)n1 (configuration not stated),inactive: 81%
17,CCOC(=O)Cc1c(C)nc2cc(C)nn2c1C,inactive: 106%
18,C=CCNC(=O)Cn1c(-c2ccc(F)cc2)nc2ccccc21,inactive: 97%
19,Cc1c(Cl)cccc1NS(=O)(=O)c1ccc(-c2cnc(C3CC3)o2)cc1,inactive: 135%

row,SMILES,survival
1,O=C(O)C1CCN(S(=O)(=O)c2cccc3nsnc23)CC1,inactive: 102%
2,Cc1oc(C(=O)O)cc1CN1CCCC1,inactive: 102%
3,CCN(C(=O)Cn1c(=O)n(-c2ccccc2)c(=O)c2ccc(C(=O)NCc3ccc4c(c3)OCO4)cc21)c1cccc(C)c1,inactive: 82%
4,O=C(CCn1c(=O)c2cccn2c2cccnc21)Nc1ccccc1C(F)(F)F,inactive: 86%
5,CCC(=O)N1c2ccccc2CC1C(=O)NCc1cc(OC)ccc1OC (configuration not stated),inactive: 76%
6,Cc1cc(C)cc(OCC(=O)Nc2c(C(=O)c3ccccc3)oc3ccccc23)c1,inactive: 78%
7,CCCCn1cnc2cc(NCc3ccc(OCC)cc3)ccc21,active: 4%
8,CC(C)c1ccc(NC(=O)c2cc(S(=O)(=O)N(C)C3CCCCC3)ccc2F)cc1,inactive: 47%
9,Cc1ccc(S(=O)(=O)N(CCC#N)Cc2ccccc2)cc1,inactive: 112%
10,CCOc1ccc(NC(=O)c2cc(S(=O)(=O)N3CCc4ccccc43)ccc2F)cc1,inactive: 79%
11,O=C(CCC(=O)c1ccc(F)cc1)Nc1ccc(Cl)cc1,inactive: 70%
12,COC(=O)c1sc2nc(C)cc(C)c2c1N,inactive: 103%
13,CCOC(=O)c1cc2c(ccn2C)n1Cc1ccc(OC(F)(F)F)cc1,inactive: 52%
14,CCOc1ccc(CNC(=O)C2CCCCN2S(=O)(=O)c2ccc(F)cc2)cc1OC (configuration not stated),inactive: 82%
15,CCn1cc(S(=O)(=O)c2cccc(C)c2)c(=O)c2cc(F)c(N3CCCC(C)C3)cc21 (configuration not stated),inactive: 66%
16,O=C(c1ccc2c(c1)N(Cc1ccccc1F)C(=O)c1ccccc1S2(=O)=O)N1CCN(c2ccccn2)CC1,inactive: 87%
17,COc1ccc(-c2nc3c(c(SC)n2)Cc2c(CO)cnc(C)c2O3)cc1,inactive: 84%
18,CCn1c(=O)c2cc(C(=O)NCCCN3CCN(C)CC3)sc2c2ccccc21,inactive: 124%
19,Cc1ccccc1NC(=O)c1c(C)oc2ccc(O)c(CN3CCOCC3)c12,inactive: 88%

row,SMILES,survival
1,O=C(CSc1n[nH]c(-c2ccccc2Cl)n1)NCc1ccc(F)cc1,active: -6%
2,Cc1ccc(Nc2c(-c3ccc(Br)o3)nc3ccccn23)cc1,inactive: 118%
3,COc1ccc(S(=O)(=O)NCc2nc3nc(C)cc(C)n3n2)cc1,inactive: 79%
4,NC(=O)c1c(NC(=O)CS(=O)(=O)c2ccc(Cl)cc2)sc2c1CCCCC2,inactive: 72%
5,CCC(=O)Oc1c(Sc2ccc(Cl)cc2)c(C)nn1-c1ccccc1,inactive: 25%
6,Cc1ccc(Cl)cc1N1CCN(C(=O)Cn2ncc3c4ccccc4n(C)c3c2=O)CC1,inactive: 67%
7,CCOc1ccc(NC(=O)CSC2=Nc3ccccc3C3=NC(CCC(=O)NCc4ccco4)C(=O)N23)cc1 (configuration not stated),inactive: 93%
8,O=C(NCCCN1CCN(c2cccc(Cl)c2)CC1)c1sc2ncccc2c1-n1cccc1,inactive: 79%
9,Cc1ccc(-c2nc(CS(=O)(=O)CC(=O)Nc3ccc(Br)cc3F)c(C)o2)cc1,inactive: 91%
10,Cc1ccc(-c2csc(-c3cc4c([nH]c3=O)CC(c3ccccc3)CC4=O)n2)cc1 (configuration not stated),inactive: 67%
11,Cc1cc(Cl)ccc1NS(=O)(=O)c1c(C(=O)N2CCC(C)CC2)c(C)n(C)c1C,active: 14%
12,O=C(Cn1c(-c2ccccc2)noc1=O)NCc1ccccc1,inactive: 117%
13,CC1CCCN(c2nc3c(-c4ccc(Cl)cc4)nnn3c3ccccc23)C1 (configuration not stated),inactive: 83%
14,CCN(CC)S(=O)(=O)c1ccc2c(c1)N(CC(=O)NCc1ccccc1)C(=O)C1CCCCN21 (configuration not stated),inactive: 102%
15,Cc1cc2c(cc1S(=O)(=O)Nc1ccc(OC(F)(F)F)cc1)OCC(=O)N2,inactive: 72%
16,COc1ccc2oc(=O)c(-c3nnc(-c4ccc(C)cc4)o3)cc2c1,inactive: 135%
17,Cc1ccc2ncc(C(=O)c3ccc(C)c(C)c3)c(S(=O)(=O)c3ccc(F)cc3)c2c1,inactive: 96%
18,CCOc1ccc(CC(=O)NCCc2sc3nc(-c4ccc(F)cc4)nn3c2C)cc1,inactive: 71%
19,O=C(NCCc1csc(-c2cccnc2)n1)c1cccc(Cl)c1,inactive: 53%
